Assay results taken from patent US12497462 (IMMUNITYBIO, dated 2025).

Biological target: T1, Human adenosine deaminase (ADA) (human, UniProt P00813 1-363, limits assumed)
T1 construct: Bought reagent; also called Human ADA (R&D systems)
T1 sequence (looked up): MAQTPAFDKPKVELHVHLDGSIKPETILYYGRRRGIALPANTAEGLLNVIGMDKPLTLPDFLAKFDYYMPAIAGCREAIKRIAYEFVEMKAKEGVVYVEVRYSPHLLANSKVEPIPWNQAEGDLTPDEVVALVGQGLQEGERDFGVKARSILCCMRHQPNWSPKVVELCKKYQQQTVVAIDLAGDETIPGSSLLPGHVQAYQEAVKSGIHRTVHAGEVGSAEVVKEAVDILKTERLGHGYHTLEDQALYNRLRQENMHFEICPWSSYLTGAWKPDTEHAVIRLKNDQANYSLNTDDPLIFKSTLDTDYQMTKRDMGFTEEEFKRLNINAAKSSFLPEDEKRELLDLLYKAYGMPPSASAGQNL
Assay: competition ELISA on coated CD26-Fc (5 µg/mL): ADA is varied and the blocked molecule is biotinylated CD26Ab-01D at 5 nM, read with SAHRP/ABTS

B1: Human CD26-Fc fusion protein (Fc fusion)
chain: NKGTDDATADSRKTYTLTDYLKNTYRLKLYSLRWISDHEYLYKQENNILVFNAEYGNSSVFLENSTFDEFGHSINDYSISPDGQFILLEYNYVKQWRHSYTASYDIYDLNKRQLITEERIPNNTQWVTWSPVGHKLAYVWNNDIYVKIEPNLPSYRITWTGKEDIIYNGITDWVYEEEVFSAYSALWWSPNGTFLAYAQFNDTEVPLIEYSFYSDESLQYPKTVRVPYPKAGAVNPTVKFFVVNTDSLSSVTNATSIQITAPASMLIGDHYLCDVTWATQERISLQWLRRIQNYSVMDICDYDESSGRWNCLVARQHIEMSTTGWVGRFRPSEPHFTLDGNSFYKIISNEEGYRHICYFQIDKKDCTFITKGTWEVIGIEALTSDYLYYISNEYKGMPGGRNLYKIQLSDYTKVTCLSCELNPERCQYYSVSFSKEAKYYQLRCSGPGLPLYTLHSSVNDKGLRVLEDNSALDKMLQNVQMPSKKLDFIILNETKFWYQMILPPHFDKSKKYPLLLDVYAGPCSQKADTVFRLNWATYLASTENIIVASFDGRGSGYQGDKIMHAINRRLGTFEVEDQIEAARQFSKMGFVDNKRIAIWGWSYGGYVTSMVLGSGSGVFKCGIAVAPVSRWEYYDSVYTERYMGLPTPEDNLDHYRNSTVMSRAENFKQVEYLLIHGTADDNVHFQQSAQISKALVDVGVDFQAMWYTDEDHGIASSTAHQHIYTHMSHFIKQCFSLP[human IgG1 Fc not written out]
notes: also called CD26/beads
- binding result: binds
